# From the supplement of paper PMC4166925
# ± gives the standard deviation of the averaged measurements. The full ranking holds about 33,000 sequences; the median of “E-score (dimensionless, -0.5 to 0.5)” is about -0.049, and the highest 2% start at about 0.37. The list shows a part of the results.
# Tested on: T1, PmTbr T-box DNA-binding domain (GST fusion)
# T1 sequence: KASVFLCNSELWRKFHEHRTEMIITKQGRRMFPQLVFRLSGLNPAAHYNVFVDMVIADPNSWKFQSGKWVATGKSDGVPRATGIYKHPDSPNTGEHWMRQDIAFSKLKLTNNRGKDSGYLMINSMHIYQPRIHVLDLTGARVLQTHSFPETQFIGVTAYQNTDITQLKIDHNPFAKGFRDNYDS
# Experiment: PBM E-score of 8-mer (E-score (dimensionless, -0.5 to 0.5)); Tbr is Tbrain of the sea star Patiria miniata (Pm) or the sea urchin Strongylocentrotus purpuratus (Sp); higher = stronger binding preference; most listed sequences are background and not binding sites
# Conditions: the construct has about 5 more residues each side
# Protocol: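 Universal protein-binding microarray (Agilent AMADID 016060, 60-bp probes with a 35-bp variable region) incubated with 200 nM GST-fused Patiria miniata Tbr T-box DNA-binding domain (residues 272-466) in PBS pH 7.5. Scored for every ungapped 8-mer (given with its reverse complement) by the Universal PBM Analysis Suite as E-score (modified Wilcoxon-Mann-Whitney enrichment, range -0.5 to 0.5; >0.45 counts as bound) and Z-score of median probe intensity. Two replicate arrays (datasets 1 and 2).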
# 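Also: 200 nM protein in PBS on universal arrays averaged over duplicate arrays.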
row,Sequence,PBM E-score of 8-mer
1,ACGGCGCC,0.0734 ± 0.073
2,GGATTGTA,-0.0921 ± 0.048
3,ACCTACGT,0.00861 ± 0.0073
4,CAACCCTG,-0.0356 ± 0.041
5,CTACGAAG,-0.0726 ± 0.057
6,GGGACTTA,-0.217 ± 0.062
7,GCGCATGA,-0.022 ± 0.008
8,CATGCACA,-0.038 ± 0.018
9,ATCGCACA,0.3241 ± 0.00047
10,ACATTAAA,-0.18 ± 0.025
11,CCTGTATA,-0.00183 ± 0.082
12,CGTACTCC,-0.0693 ± 0.078
13,CCTATTTC,-0.128 ± 0.053
14,ACCCTATC,0.135 ± 0.043
15,TCTGAGCA,-0.23 ± 0.016
16,GAGACGTA,-0.0252 ± 0.019
17,ATTTGGAG,-0.189 ± 0.015
18,CGACAGGA,0.0929 ± 0.046
19,AAGCTTAG,-0.0696 ± 0.026
20,ACCGATCG,0.24 ± 0.025
21,AGTCATAT,-0.234 ± 0.069
22,GTCAGCCA,0.0752 ± 0.093

row,Sequence,PBM E-score of 8-mer
1,ACACTACC,0.2187 ± 0.0013
2,TACCTCCA,-0.00358 ± 0.099
3,AGTGCTAA,0.421 ± 0.012
4,GCGCGGTA,-0.109 ± 0.03
5,AGGGATTG,-0.136 ± 0.047
6,CAACAAGC,0.0422 ± 0.028
7,ATATAGGC,0.00492 ± 0.055
8,ACCGAAAA,-0.165 ± 0.011
9,GGGTGCTA,0.4326 ± 0.0028
10,GGGGCTAA,-0.0787 ± 0.028
11,AACCTTAA,-0.209 ± 0.044
12,AAAGTCTC,0.0424 ± 0.053
13,GCAATTGC,0.159 ± 0.012
14,TGATTTAA,-0.164 ± 0.087
15,CCACGTGA,0.245 ± 0.023
16,ACAGCGAG,0.232 ± 0.014
17,AGACGGGG,-0.239 ± 0.024
18,CTGAATAA,-0.221 ± 0.013
19,TAATTATA,-0.257 ± 0.017
20,GGCGAAGA,0.0326 ± 0.058
21,CCCCTACG,-0.0948 ± 0.0047
22,CGCACTAC,0.179 ± 0.017

row,Sequence,PBM E-score of 8-mer
1,CCAGCTTC,-0.148 ± 0.011
2,ACCACTTG,0.121 ± 0.0065
3,CAAGGATA,-0.186 ± 0.029
4,CACGGTAG,-0.104 ± 0.036
5,GTCGTTAA,0.0848 ± 0.0083
6,CCCAAAAC,0.0141 ± 0.0023
7,AGCCCCTC,0.0711 ± 0.078
8,CATTATGA,-0.0803 ± 0.013
9,CACTAGTG,0.197 ± 0.0089
10,GACGGATA,-0.101 ± 0.05
11,ATCGCTTA,0.0877 ± 0.013
12,TGCACTAA,0.135 ± 0.0049
13,CGGGGGAG,-0.241 ± 0.018
14,AGCACATC,0.207 ± 0.05
15,AGATTCGG,-0.173 ± 0.036
16,GAGTATGA,0.0407 ± 0.095
17,ACTATTGA,-0.138 ± 0.066
18,TCCGATAA,-0.108 ± 0.093
19,AGTGGATA,-0.0692 ± 0.054
20,ACTTGAGC,0.0696 ± 0.048
21,GATTTTAC,-0.23 ± 0.046
22,ACATGAGT,-0.0507 ± 0.016

row,Sequence,PBM E-score of 8-mer
1,CCTATATC,-0.195 ± 0.0043
2,AATTCCTC,-0.193 ± 0.025
3,GTCGTGGA,0.0374 ± 0.015
4,CGAAATAG,-0.0237 ± 0.00068
5,CTCGAAGC,-0.0159 ± 0.011
6,ACAAGACC,0.0576 ± 0.017
7,AAGTAGAA,0.0579 ± 0.014
8,ACCAGGAG,-0.0755 ± 0.044
9,TCTGCGCA,0.0499 ± 0.0022
10,CTCATAAG,-0.192 ± 0.068
11,AGAGGTAC,-0.0631 ± 0.0026
12,CATCCCCC,-0.0831 ± 0.02
13,CGTCCGAC,0.000435 ± 0.055
14,GGAACGAC,-0.00859 ± 0.022
15,GACGAAGC,-0.0209 ± 0.038
16,GCCGCGAA,0.264 ± 0.024
17,CTAATAGA,-0.176 ± 0.013
18,ATATAGTA,-0.0423 ± 0.079
19,CTTCCATC,-0.0699 ± 0.076
20,GATCTTGC,-0.0442 ± 0.011
21,CGACCAGA,-0.0136 ± 0.013
22,ATCAGTTG,0.0668 ± 0.091

row,Sequence,PBM E-score of 8-mer
1,ATCGCACG,0.34 ± 0.023
2,GAGCGATC,-0.266 ± 0.02
3,TCGGCAAA,-0.0411 ± 0.018
4,AAGCGCGA,0.375 ± 0.017
5,GACATAGC,-0.16 ± 0.013
6,ATCGGGGC,-0.0198 ± 0.045
7,ACCAAGGA,-0.166 ± 0.087
8,AATAGACT,-0.175 ± 0.072
9,ACTCTCCC,0.106 ± 0.0071
10,ATAACCCC,-0.142 ± 0.016
11,CCGTGTAC,-0.147 ± 0.093
12,CAGTACTA,-0.142 ± 0.045
13,CCGAACGG,-0.274 ± 0.031
14,CTCCACAA,0.141 ± 0.031
15,GGGTAGGA,-0.205 ± 0.052
16,CTAAAGGA,-0.136 ± 0.018
17,ATTTTTTG,0.011 ± 0.042
18,GCCCAAAA,-0.0744 ± 0.087
19,AGTGGCAA,0.304 ± 0.039
20,ATAAGTCG,0.123 ± 0.013
21,AACCCTCC,-0.152 ± 0.07
